Reference: patent US20230174595A1 (UNIVERSITY OF LOUISVILLE RESEARCH FOUNDATION, published 2023)

Biological target: T1, recombinant His-tagged HIV-1 gp120 ZM53M.PB12 (Clade C) (HIV-1 strain ZM53M.PB12)
T1 construct: domain: gp120
Experiment: SPR (Biacore X100), His-tagged gp120 captured on NTA chip, steady state

B1: AvFc lectibody (Avaren fused via a linker to the Fc region of human IgG1) (Fc fusion)
chain: ASGTIRNAETGRCLDSNYNGNVYTLPCNGGNYQRWTGPGDGTVRNAETGRCLDSNYDGAVYTLPCNGGSYQKWTGPGDGTIQNAETGRCLDSNYNGNVYTLPCNGGNYQKWTGGGGSV[human IgG1 Fc left out here]
B1 showed a Kd of 4.4 nM.
